Reference: PMC6919601, “Identification of Plasmodium dipeptidyl aminopeptidase allosteric inhibitors by high throughput screening” (PLoS ONE, 2019)
“And” between values parts separate entries of the source, which are not always exact repeats. Equal values may be shown once. Out of some 110,000 compounds screened, about 230 (0.21%) showed an effect of 50% or more. The list shows a part of the results.

Target: DPAP1 (Plasmodium falciparum, UniProt Q8IIJ9)
Experiment: primary screen, percent inhibition; read by cleavage of a fluorogenic dipeptide substrate; higher = more effect of the substance
Parameters: species or system P. falciparum D10 trophozoite lysates; single well
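Further: 30 min substrate incubation versus DMSO and 10 µM JCP410 controls.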

DPAP1, sequence (Q8IIJ9 whole entry, looked up): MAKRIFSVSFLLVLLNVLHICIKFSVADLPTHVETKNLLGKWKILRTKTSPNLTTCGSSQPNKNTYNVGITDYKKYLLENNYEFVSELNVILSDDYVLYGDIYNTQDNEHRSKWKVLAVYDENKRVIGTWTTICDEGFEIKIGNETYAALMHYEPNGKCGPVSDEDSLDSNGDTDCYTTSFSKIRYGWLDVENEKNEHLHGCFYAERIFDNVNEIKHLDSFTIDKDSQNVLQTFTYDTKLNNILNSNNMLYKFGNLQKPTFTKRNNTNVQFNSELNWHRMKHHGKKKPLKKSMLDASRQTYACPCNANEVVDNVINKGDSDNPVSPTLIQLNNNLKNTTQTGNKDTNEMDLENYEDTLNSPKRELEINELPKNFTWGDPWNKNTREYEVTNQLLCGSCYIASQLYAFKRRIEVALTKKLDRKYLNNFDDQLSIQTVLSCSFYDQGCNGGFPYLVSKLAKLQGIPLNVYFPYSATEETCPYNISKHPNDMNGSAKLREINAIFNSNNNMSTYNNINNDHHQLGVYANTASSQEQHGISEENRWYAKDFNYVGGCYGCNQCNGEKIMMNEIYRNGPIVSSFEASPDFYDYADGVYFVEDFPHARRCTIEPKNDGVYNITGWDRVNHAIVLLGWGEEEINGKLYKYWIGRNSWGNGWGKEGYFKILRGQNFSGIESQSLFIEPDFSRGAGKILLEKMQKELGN

Row | SMILES | % Inhibition @ 10 uM
1 | O=C(c1ccc(S(=O)(=O)N2CCOCC2)cc1)N1CCCCC1 | -2.63%
2 | O=C1c2[nH]nc(-c3ccccc3O)c2C(c2ccccc2)N1CCCO (centres unmarked) | 0.366%
3 | COc1cccc(C2CC(c3cccs3)=NN2C(C)=O)c1OC (centres unmarked) | 9.77%
4 | CCOc1ccc(CN2CCN(c3ccc(Cl)cc3)CC2)cc1 | -1.77%
5 | C(=C\c1ccccc1)/CN1CCN(C2CCN(Cc3ccccc3)CC2)CC1 | 1.88%
6 | CCOCCCNC(=O)Cn1ncc2c3ccccc3n(Cc3cccc(Cl)c3)c2c1=O | 0.137%
7 | CC1(C(=O)NCc2ccc(C(C)(C)C)cc2)COC(c2ccccc2)OC1 (centres unmarked) | -4.35%
8 | O=C(NCCCN1CCOCC1)c1cc2c(O)nc3ccccc3c2s1 | -0.499%
9 | O=C(Cn1cccc1)NCCc1ccc(Cl)cc1 | -0.905%
10 | Cc1ccc2nc3c(O)n(CCCN4CC(C)CC(C)C4)cnc-3c2c1 (centres unmarked) | -0.0235%
11 | CC1(C)O[C@H]2OC(C(=O)N3CCCCC3c3cccnc3)[C@@H]3OC(C)(C)O[C@@H]3[C@H]2O1 (some centres unmarked) | 0.279%
12 | CCN1CCN(C(=O)C2CC(=O)N(CCc3ccc(C)cc3)C2)CC1 (centres unmarked) | -1.79%
13 | N#Cc1c2c(c(S)sc1=N)CCCC2 | 59.6%
14 | COc1cccc(C2C(C#N)=C(N)Oc3c2c(O)nc2ccccc32)c1OC (centres unmarked) | 4.51%
15 | COc1ccc(OC)c(C2NC(=O)NC(C)=C2C(=O)Nc2ccccc2)c1 (centres unmarked) | -4.49%
16 | Cc1ccc(NC(=O)C(CCS(C)(=O)=O)N2Cc3ccccc3C2=O)nc1 (centres unmarked) | -2.17%
17 | Cc1ccc(-c2csc(/C(C#N)=C/c3ccc(Br)o3)n2)cc1 | 6.8%
18 | Nc1ncc(Br)cc1S(=O)(=O)NC1CCCCC1 | -1.06%
19 | Cc1ccc(OCC(=O)Nc2cccc(Cl)c2)c(Br)c1 | 1.27%
20 | Cc1occc1C(=O)N(Cc1ccccc1)Cc1ccccc1 | -1.1%
21 | COc1cc(OC)c(/C=C2/SC(=O)N(C(C)C)C2=O)cc1Br | -1.28%
22 | Cc1ccc(NC(=O)c2c(-c3ccccc3)noc2C)cc1C | -2.11%
23 | CC(C(=O)NCc1ccco1)n1nc(-c2ccccc2)c2cc(Cl)ccc21 (centres unmarked) | 0.291%
24 | Cc1ccc(C(=O)Nc2nc(-c3nnn(-c4ccccc4C(F)(F)F)c3C)ns2)cc1 | -2.83%
25 | Cc1ccc(NC(=O)CN(c2cccc(Cl)c2)S(C)(=O)=O)cc1Cl | -14.2%
26 | CC(C)c1ccc(/C=C/C(=O)Nc2ccc(Cl)c(Cl)c2)cc1 | 13.1%

Row | SMILES | % Inhibition @ 10 uM
27 | COc1ccc(OC)c(C2C(C#N)=C(N)OC3=C2C(=O)CCC3)c1 (centres unmarked) | 3.31%
28 | O=C1NC(=S)N/C1=C\C=C\c1cccs1 | 1%
29 | CCOC(=O)c1ccccc1NC(=O)c1cccs1 | -2.28%
30 | Cc1ccc(Cn2c(C)c3cnn(CC(=O)NCc4cccnc4)c(=O)c3c2C)cc1 | -3.96%
31 | Cc1c(Br)c(NC(=O)C(F)(F)F)nn1Cc1ccc(Cl)cc1 | -1.2%
32 | Cc1cccc(NC(=O)Cc2c(F)cccc2Cl)n1 | 1.39%
33 | CCOC(=O)c1c(C)nn(C2CCCCC2)c1N | 3.65%
34 | COc1cccc(OC)c1-c1nnc(-c2ccccc2Cl)o1 | 2.41%
35 | CCc1cccc(C)c1NC(=O)COc1cccc(NC(C)=O)c1 | 1.13%
36 | COCCNC(=O)c1c(NC(=O)Cc2coc3cc(C)cc(C)c23)sc2c1CCCC2 | -0.671%
37 | Cc1cccc(NC2=C(Cl)C(=O)N(c3ccccc3)C2=O)c1C | 1.03%
38 | COc1cc(/C=C2/C(=N)N3C(c4ccccc4)=CSC3=NC2=O)ccc1OC(C)C | -0.178%
39 | COc1ccc(-n2nc3c(c2NC(=O)c2ccccc2C)CS(=O)(=O)C3)cc1 | 3.8%
40 | CCOC(=O)C1=C(N)Oc2ccc3ccccc3c2C1c1cccc(O)c1 (centres unmarked) | 24.8%
41 | COc1ccc(CCn2c(SCc3ccccc3F)nc3nccnc3c2=O)cc1OC | -5.99%
42 | CC1CCCN(CCCNC(=O)c2ccc(CS(=O)(=O)Cc3cccc(Cl)c3)o2)C1 (centres unmarked) | 2.35%
43 | CCOc1ccccc1NS(=O)(=O)c1ccc(Cl)cc1 | -4.63%
44 | O=C(OC[C@@H]1CCCN2CCCC[C@H]12)c1ccccc1 | 1.29% and -3.82%
45 | Cc1ccc(C)c(S(=O)(=O)Nc2cccc(C(F)(F)F)c2)c1 | 0.132%
46 | Cc1ccc(-n2c(C)cc(/C=C3\SC(=O)NC3=O)c2C)cc1C | 3.65%
47 | O=C(NCCCN1CCc2ccccc2C1)c1ccc2nc(N3CCCCC3)sc2c1 | 1.03%
48 | FC(F)(F)Oc1ccc(CNc2ccc3c[nH]nc3c2)cc1 | -3.57%
49 | CCN1CCN(C(=O)Cn2ncc3c(C)n(Cc4ccccc4)c(C)c3c2=O)CC1 | -0.447%
50 | Cc1cccc(-c2nc(C#N)c(N3CCOCC3)o2)c1 | -2.16%
51 | Cc1ccc(CN2CCN(Cc3ccc4c(c3)OCO4)CC2)c(C)c1 | -3.72%
52 | COc1ccc(C(=O)Nc2cc3ccccc3cc2NC(=O)c2ccc(OC)cc2)cc1 | 4.42%

Row | SMILES | % Inhibition @ 10 uM
53 | CC(C)OCCCNc1ncnc2c1nc1n2CCCCC1 | 2.99%
54 | CCOC(=O)C1CCN(c2cccc(C)n2)CC1 | -1.2%
55 | Cc1ccc(CNCCCSc2nnnn2-c2ccccc2)s1 | -4.71%
56 | COC(=O)c1c(C)nc(C)c(C(=O)OC)c1-c1cccs1 | -4.42%
57 | COc1ccccc1C(=O)n1nc(-c2cccnc2)nc1NCc1ccc(F)cc1 | -1.15%
58 | COc1ccc(SCCc2ccccn2)cc1 | 1.13% and 0.51%
59 | O=C(c1cc(C2CC2)[nH]n1)N1CCN(Cc2ccccc2)CC1 | -1.04%
60 | COc1ccc(C2=CC(c3cc(Br)ccc3F)n3nnnc3N2)cc1 (centres unmarked) | 3.32%
61 | CN1C(C)(C)CC(NC(=O)c2ccncc2)CC1(C)C | -16.5%
62 | Cc1cc(N2CCN(c3ccccn3)CC2)n2nc(C)c(-c3ccccc3)c2n1 | 1.55%
63 | CCN(CC)C(=O)C(=O)c1c(-c2ccccc2)n(C)c2ccccc12 | -7.8%
64 | O=C(Nc1c(C(=O)N2CCN(c3ccc(F)cc3)CC2)cnn1-c1ccccc1Cl)c1ccco1 | 3.8%
65 | Cc1cccc2c1-c1sc(C(=O)N(C)Cc3ccccc3)cc1CO2 | -8.58%
66 | O=S1(=O)CCC(Oc2ccc(Br)cc2)C1 (centres unmarked) | -5.38%
67 | COc1cc2c(cc1OC)C(c1ccc(Cl)cc1Cl)N(c1ccc(C)cc1)C(=O)C2 (centres unmarked) | -7.19%
68 | Cc1ccc(C2=NN(C(=O)CCC(=O)O)C(c3ccc4c(c3)OCO4)C2)cc1 (centres unmarked) | -4.43%
69 | CCOCCCNC(=O)c1cc(OC)cc(OC)c1 | -8.49%
70 | CCOC(=O)c1ccc2c(c1)C1C=CCC1C(c1ccc(Cl)cc1Cl)N2 (centres unmarked) | -4.8%
71 | Cc1nn(-c2ccccc2)c(C)c1Sc1nnc(O)nc1O | -2.6%
72 | O=C(O)c1ccc(CS(=O)c2cccc(C(F)(F)F)c2)o1 (centres unmarked) | 6.13%
73 | CC(C)(C)c1cc(C(C)(C)C)cc(S(=O)(=O)CCc2ccccn2)c1 | 1.7%
74 | N#CC(C#N)=Cc1ccc(-c2ccc(Cl)cc2Cl)o1 | 7.24%
75 | CCOc1ccc(NC(=O)C2CC(=O)N(CC)/C(=N\c3ccccc3)S2)cc1 (centres unmarked) | -1.04%
76 | O=S(=O)(c1ccccc1)n1nc(-c2ccco2)nc1NCc1cccs1 | -5.08%
77 | Cc1ccc(-n2nc(C(=O)O)cc2-c2ccccc2)cc1 | -1.33%
78 | Cc1cccc(N2C(=O)CC(N3CCN(Cc4ccccc4)CC3)C2=O)c1 (centres unmarked) | 2.09%

Row | SMILES | % Inhibition @ 10 uM
79 | O=C(c1ccc(Oc2ccccc2)cc1)c1ccc(C(=O)c2ccc(Oc3ccccc3)cc2)cc1 | -1.45%
80 | COc1ccc(NCCNc2ccc(OC)cc2)cc1 | -1.69%
81 | O=[N+]([O-])c1ccc(Cl)c(CN2CCSCC2)c1 | -5.5%
82 | COc1ccc(N2CCN(C(=O)CN(Cc3ccccc3)S(C)(=O)=O)CC2)cc1 | -3.45%
83 | O=C(CSc1ccc(-c2cccs2)nn1)NCCc1ccccc1 | 3.54%
84 | COc1ccc(N2C(=O)c3cccc([N+](=O)[O-])c3C2=O)cc1 | 3.32%
85 | Cc1cc(NC(=O)c2ccc3c(c2)OCO3)n(Cc2ccc(F)cc2)n1 | -3.34%
86 | N#CC1=C(N)Oc2[nH]nc(-c3ccccc3)c2C1c1ccccc1F (centres unmarked) | -0.941%
87 | COCCCNC(=O)c1c(C)c(-c2ccc(C)cc2)nc2ccccc12 | -2.69%
88 | CCOc1cc(CNCc2c(C(=O)O)n(Cc3ccc(OC)cc3)c3ccccc23)ccc1OC | -4.99%
89 | Cc1cc(-c2noc(Cn3nc(C)c(Br)c3C)n2)c2ccccc2n1 | 3.66%
90 | N#Cc1c(-c2ccc(-c3ccccc3)cc2)csc1N | 16.7%
91 | CCOC(=O)CNc1nc(Cl)nc(NC(C)(C)C)n1 | 0.878%
92 | CCS(=O)(=O)c1nc(S(=O)(=O)c2ccc(Cl)cc2)c(NC2CCCCC2)s1 | -4.26%
93 | Cc1[nH]nc2c1C(c1ccc(-c3cc(Cl)ccc3Cl)o1)C(C#N)=C(N)O2 (centres unmarked) | 0.851%
94 | COc1ccccc1Nc1nc(N)nc(CN2CCN(C)CC2)n1 | -2.29%
95 | CCOC(=O)c1cc(-c2ccccc2)n(-c2ccccc2C)n1 | -1.33%
96 | O=C(NCC1CCCO1)c1ccc(CS(=O)(=O)c2c(Cl)cccc2Cl)o1 (centres unmarked) | -1.05%
97 | CCOC(=O)N1CCN(S(=O)(=O)N2CCCC(C(=O)N3CCCCC3)C2)CC1 (centres unmarked) | 0.387%
98 | Cc1nn(C)c(C)c1NC(=O)c1ccc2ccccc2c1 | -1.46%
99 | Cc1nn(C)c(C(=O)NC2C3CC4CC(C3)CC2C4)c1Br (centres unmarked) | 0.727%
100 | Cc1ccc(SCc2cc(=O)n3c4c(sc3n2)CCCC4)cc1 | 0.44%
101 | Cc1c2cccn2cc[n+]1CC(=O)c1ccccc1 | 1.67%
